Data from PubChem BioAssay AID1240 (Sanford-Burnham Center for Chemical Genomics, 2008).
Hit rate of the full screen: of about 50,000 compounds, about 800 (1.6%) showed an effect of 50% or more. The list shows a part of the results.

The molecules below were run against Bcl-2-like protein 10 (Homo sapiens) (UniProt Q9HD36) (assay: Phenotype converters, Bcl-B/TR3 peptide binding displacement, primary biochemical FP (AID 1240;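 further: 0% = Bcl-B with tracer peptide and DMSO and 100% = tracer peptide lacking Bcl-B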)). Conditions: GST-Bcl-B / FITC-TR3 peptide fluorescence polarization; stronger effect = higher value; compound at 3.75 mg/L.
Chain of UniProt Q9HD36 (Q9HD36 whole entry, looked up): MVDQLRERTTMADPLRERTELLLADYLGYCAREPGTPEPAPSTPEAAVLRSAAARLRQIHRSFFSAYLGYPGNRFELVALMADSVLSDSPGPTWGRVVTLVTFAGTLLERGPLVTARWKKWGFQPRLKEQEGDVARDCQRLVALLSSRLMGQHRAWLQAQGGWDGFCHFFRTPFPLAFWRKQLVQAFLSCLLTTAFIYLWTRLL
`COc1ccccc1NC(=O)c1c(NC(=O)C(C)(C)C)sc2c1CCCC2` showed a displacement of -1%.
`Cn1/c(=N/N=C/c2c(O)ccc3ccccc23)sc2ccccc21` gave a displacement of 9.8%.
For `CCN(CC)c1ccc(/C=C2\C(=O)NC(=S)N(c3ccc(F)cc3)C2=O)c(O)c1`, the displacement was 6.6%.
For `O=C(COc1ccc(Cl)cc1)Nc1cc([N+](=O)[O-])ccc1F`, the displacement was 6.6%.
`COc1cc(/C=C2/SC(=S)NC2=O)ccc1OC(=O)c1cccc(Br)c1` showed a displacement of 34.3%.
Molecule `O=C(COc1ccc(Cl)cc1Cl)N1CCN(C(=O)COc2ccc(Cl)cc2Cl)CC1` has a displacement of 2%.
In the case of `COc1cc(NC(=O)COc2ccccc2Cl)cc(OC)c1`, the displacement is reported as -10.1%.
`CC(=O)Nc1ccc(S(=O)(=O)N2CCN(c3ccc(F)cc3)CC2)cc1` gave a displacement of 13.7%.
`Cc1cc(C)c(NC(=S)NC(NC(=O)c2ccc(Br)cc2)C(Cl)(Cl)Cl)c(C)c1` (stereo unspecified) was tested, and the displacement was -0.9%.
`CCCC1CC(C(=O)NC(C(C)O)C2OC(SC)C(O)C(O)C2O)N(C)C1` (stereo unspecified) gave a displacement of -1.2%.
With `COc1ccc(CCNC(=O)COc2ccccc2Cl)cc1` the displacement was -5.3%.
`O=C(NC(=S)Nc1cccc(SC(F)(F)C(F)(F)C(F)(F)F)c1)c1cccs1` showed a displacement of -3.3%.
Work on `CCOc1cc(OCC)cc(C(=O)Nc2cccc(-c3nc4ncccc4o3)c2C)c1` yielded a displacement of -0.2%.
Molecule `CSc1ccc(C=NN2CCN(Cc3ccccc3)CC2)cc1` has a displacement of -0.6%.
Work on `CC(C)CCNC(=O)c1ccccc1I` yielded a displacement of -10.3%.
`COc1ccc(N2C(=O)/C(=C/c3ccc(I)o3)SC2=S)cc1` showed a displacement of 14.6%.
`O=C(O)CN(c1cccc(Cl)c1)S(=O)(=O)c1ccccc1` was tested, and the displacement was 13.3%.
`Cc1cc(OCC(=O)Nc2ccc(NC(=O)c3ccccc3)c(Br)c2)cc(C)c1Cl` was tested, and the displacement was 7.5%.
Molecule `CCOc1ccccc1NC(=O)c1cccc([N+](=O)[O-])c1` has a displacement of 1.1%.
Molecule `Nc1nnc(CC(=O)N/N=C/c2cccc(Cl)c2)s1` has a displacement of 5.8%.
`O=C(O)c1ccc(N2C(=O)CC(N3CCN(c4ccccc4F)CC3)C2=O)cc1` (stereo unspecified) showed a displacement of 7.2%.
Work on `O=C(Nc1c[nH]c(=O)[nH]c1=O)c1ccccc1F` yielded a displacement of 14.5%.
`CCCCOc1ccc(C2C(C#N)=C(N)OC3=C2C(=O)CC(C)(C)C3)cc1` (stereo unspecified) was tested, and the displacement was -11.6%.
For `COc1ccc(C)cc1NC(=O)Cc1cccc2ccccc12`, the displacement was -2.5%.
For `COc1cc(C(=O)c2cc(Br)ccc2NC(=O)COc2ccccc2)cc(OC)c1OC`, the displacement was 57.3%.
For `COC(=O)C1=C(C)N(c2ccc(OC)cc2)C(=O)/C1=C\c1ccc(O)c(OC)c1`, the displacement was 8.6%.
`COC(=O)C1=C(C)N(C)C(=O)NC1c1cccc(O)c1` (stereo unspecified) gave a displacement of -5.5%.
Work on `CC1(C)Nc2ccccc2-c2c1sn(-c1cccc(Cl)c1)c2=S` yielded a displacement of 2.4%.
`O=C(/C=C/c1ccccc1)NCc1ccc(F)cc1` showed a displacement of -8.7%.
`CSc1cccc(NCc2ccc([N+](=O)[O-])cc2)c1` gave a displacement of -6.9%.
Molecule `O=C(CSc1nc2sc3c(c2c(=O)[nH]1)CCCC3)NCc1ccccc1` has a displacement of -18.5%.
With `COc1ccc(C2=NN(C(=O)CCC(=O)O)C(c3cccc([N+](=O)[O-])c3)C2)cc1` (stereo unspecified) the displacement was -1.4%.
Molecule `CCC(=O)N1c2ccccc2NC2=C(C(=O)CC(c3ccccc3)C2)C1c1ccc(F)cc1` (stereo unspecified) has a displacement of -4.6%.
For `COc1cccc(/C=C2/SC(=O)N(c3ccccc3)C2=O)c1O`, the displacement was 10.6%.
With `CC(Cc1ccccc1)N=C1NS(=O)(=O)c2cc([N+](=O)[O-])ccc21` (stereo unspecified) the displacement was 10%.
Work on `COC(=O)c1ccc(OCC(O)CN2CCCCC2)cc1` (stereo unspecified) yielded a displacement of -10.4%.
`Cc1cc(Cl)ccc1NC(=O)COc1ccccc1C` showed a displacement of -7%.
`O=C(c1cnn2c(C(F)(F)F)cc(-c3ccco3)nc12)N1CCN(C(c2ccccc2)c2ccccc2)CC1` showed a displacement of -6.1%.
For `COc1cc2c(=O)c3ccccc3sc2c(OC)c1OC`, the displacement was -14.2%.
Work on `OC(CNc1ccc(Br)cc1)COc1ccc(OCC(O)CNc2ccc(Br)cc2)cc1` (stereo unspecified) yielded a displacement of 5.4%.
With `Cc1ccc(-c2nc3ccc(C)cn3c2NC(=O)c2ccccc2)cc1` the displacement was 21%.
With `COc1cc(OC)cc(C(=O)N2CCN(C3CCN(Cc4ccccc4)CC3)CC2)c1` the displacement was 0.3%.
In the case of `CN1CCN(NC(=O)NC23CC4CC(CC(C4)C2)C3)CC1`, the displacement is reported as -3.8%.
In the case of `Cc1ccc(N=Cc2cc(Br)ccc2O)cc1F`, the displacement is reported as -4.1%.
`O=C(Nc1ncc(Cc2ccc(Cl)cc2)s1)c1ccccc1Cl` showed a displacement of 6.4%.
For `COc1ccc(/C=C/C(=O)NCc2ccc(Cl)cc2Cl)cc1`, the displacement was 6.5%.
For `Cc1ccc(C(=O)O)cc1N1C(=O)c2ccc(C(=O)O)cc2C1=O`, the displacement was 6.5%.
`O=C1c2cccc3cccc(c23)C(=O)N1/N=C/c1ccc(Cl)cc1` gave a displacement of 21.2%.
In the case of `CCOc1ccc2nc(SCC(=O)Nc3cc(C)ccc3C)sc2c1`, the displacement is reported as 3.4%.
Work on `O=C1NC(=Nc2ccc(Cl)cc2)SC1Cc1cccc(C(F)(F)F)c1` (stereo unspecified) yielded a displacement of -4.4%.
Molecule `O=C1CCCC2=C1C(c1ccc(Cl)cc1)C1C(=O)c3ccccc3C1=N2` (stereo unspecified) has a displacement of -4.3%.
Molecule `OCc1ccc(-c2ccc(OC(F)(F)F)cc2)o1` has a displacement of -12.3%.
`CC1=C(C(=O)Nc2ccccc2)C(c2ccc(O)c(O)c2)NC(=S)N1` (stereo unspecified) was tested, and the displacement was 10.7%.
For `COc1ccc(CC(=O)O/N=C(\N)c2ccc(Cl)cc2)cc1OC`, the displacement was -4.4%.
`COc1ccc(-c2nc3ccccc3c(C(=O)NC(C)(C)C)c2C)cc1` gave a displacement of 12.2%.
`O=C(COc1ccc(Cl)cc1Cl)Nc1ccc(NC(=O)COc2ccc(Cl)cc2Cl)cc1` showed a displacement of 10.5%.
Molecule `O=C1CSC(=O)N1CN1CCCCC1` has a displacement of 10.3%.
With `COc1ccc(S(=O)(=O)N2CCN(C(=O)c3ccc(-c4ccccc4)cc3)CC2)cc1` the displacement was -3.6%.
For `Cc1sc2nc(C)n(CCO)c(=O)c2c1C`, the displacement was 12.2%.
`COc1ccc(CN2CCN(C3CCC(C)CC3)CC2)c(OC)c1OC` (stereo unspecified) showed a displacement of -18.1%.
Molecule `CC(C)c1ccc(/C=N/N=C2/NC(=O)CS2)cc1` has a displacement of -11.3%.
Work on `C1CCC(N2NC2C2NN2C2CCCCC2)CC1` (stereo unspecified) yielded a displacement of -1.7%.
In the case of `COc1ccccc1CNC(=O)C(=O)Nc1ccc(C)c(C)c1`, the displacement is reported as 1%.
Work on `CC1=NN(c2ccccc2)C(=O)/C1=C/c1cccn1-c1ccc([N+](=O)[O-])cc1` yielded a displacement of -0.8%.
`COc1cccc(/C=N/NC(=O)C(=O)N2CCCC2)c1` was tested, and the displacement was 9.6%.
`CCc1cccc(NC(=O)CCc2ccccc2)c1` gave a displacement of -7%.
With `COc1ccc(/C=C/C(=O)NC(=S)Nc2ccccc2C)cc1OC` the displacement was 8.5%.
For `CCCC(=O)Nc1ccc(NC(=O)c2ccc(Br)o2)cc1`, the displacement was 6.6%.
Work on `O=C1c2ccccc2C(=O)N1C1C(=O)N(c2ccc(Br)cc2)C1c1ccccc1` (stereo unspecified) yielded a displacement of -2.1%.
For `Cc1cc(C)c2c(N)c(C(=O)c3ccc(Br)cc3)sc2n1`, the displacement was -7.3%.
Work on `O=S(=O)(O)c1c(O)cnc2ccccc12` yielded a displacement of 8.7%.
